Test results reported in the RNAGym collection of RNA variant scans (doi:10.7554/elife.90254).
The source gives no read counts; variants with many changes may rest on few reads.

B1: OR4K15 (parent)
chain: GUUAACGGUCAUAGGCCAUGGAAACUAGGAGCACCAUUUCGCUGCCAGUGAAGAAAUGAACAAAGAAAAUCUGGGCCAGGCAGGCAUCAAAAGAAAUAGUCUUGCGCUCAACCAGAAAGUCUGUAAUCAUUUUAAGGGUA

Variants of: B1
Assay: self-cleavage, relative activity (ratio to wild type); higher = more cleavage; in vitro, sequencing; the parent is a self-cleaving ribozyme

Variant	self-cleavage
A27G U72C U131C	0.03
A24G A116G A140U	0.48
C25U U38C C42U A55U A117G A118G U122A	0.93
A24G A67G A78G	0.09
U26C C35U U132C	0.97
G29A A52C A69U A82G U127C	0.19
A27G G115A A126G	0.03
A24G U37C A67G U131C	2.2
A24G A78U A126G U130C	0.09
U26C A36G A55G	1.38
G28U A68G G80U A126G G138U	0.03
U26A A69U C77A A86G	0.75
A27U G31A C128U U132C	1.59
G28A A111U C112U	0.02
A24U C42U A51G A54G U108C	0.05
A27G U39C A55G	0.79
A27G U49C G104A A110U	0.01
A24U A110G A116G	0.06
A24G A92G A111U	0.15
A24G G31C A52G	1
A24G A91G C105A	0.03
A24U G74C A96G A117G U130C	0.1
U26A U37C A66G	1.63
A27G A95G A114G	0.52

Variant	self-cleavage
A27U U39C A54G A62G A118G U131C	1.72
A24G U43A U87C	0.28
A24G A68G A91G U124C A134G	0.39
A24G A67C A94G A111U C112U	0.04
U26C A62C A67G U132G	0.42
A27G A30G U43C A66G A135U	0.59
G28A G93A U130C	2.33
U26C A36G U87C	1.72
A27U A63G C77U	1.24
U26C A47G A56G A59G A95G A140G	0.57
A24G U39C A55G	0.86
A24G G74U U103C A118G	0.05
A27G A30U U108G	0
U26C A64G A135G	1.42
A24G A68G A92G U102A	0.35
C25U A55G U102C	1.8
A27G U39C U72G	0.23
G28A A64G G115U	0.05
A24G U87C C105U U120C	0.02
A27U A30G U100C U132C	1.62
C25A A51G A96G A117G	2.08
A27G A59G G137U	0.96
U26C U38C U122C	1.31
U26C A78C A96U A118U	0.15

Variant	self-cleavage
A27G A52G A69U	1.53
U26G A33G U39C A129G	1.2
A27G U43C A55G	1.07
U26A A62U A78G	0.3
A24G U37C A86G G123A U139C	0.9
C25U A33G A59U U70C A86G U122C A129G	0.09
A27U A36G U87A A96G	1.64
A27G U37C A126G	0.71
A24G U108C U132A	0.03
A27G A59U A78U U122C	0.22
A24U A60U U87C	1.69
A24U A56G A78C	0.14
G28U A52G U130C A135G	0.18
U26C U87C U130C U131C	0.71
A24G U57C A68G A82U G137A U139C	0.14
A27G U43C A51G A125G	0.26
U26C A33G U37C A54U A63G A89G U100C U131C	0.88
U26A U87A A117G A118G	1.61
A27G A54G C71U C77A A116G	0.19
A27G U37C A68G A96C	1.29
C25U A36G C105U	0.37
A24G U43C U108A A116U	0.01
A24G A110G A117G	0.2
A27U A54G A62G A98G	0.45

Variant	self-cleavage
U26C A62G A67G U72A A90C A92G A117G	0.12
U26A A55U A118U	0.52
A24G A111G U120A	0.02
A27C A78U A91G U100C A111G U120C	0.01
C25U A52G A90U U97A	0.41
A24U A36U A63G	1.6
C25U A92G A134G	1.23
A24G A111U A116G	0
U26G U72C A110G A111G	0.07
A24G A118G U122C A126G U130C	0.21
C25U A27G A59G A64G A90G	0.8
A24G U37C A55G A60G U87C A118U	0.48
A24G A67G A95G A118G	1.86
A24G U102C A118G	1.44
A24G C45U A51G A140G	0.75
A24U A60G U108C	0.02
A27G U38A A126G U127C	1.03
U26A A63G A68G A111G A117G	0.02
A24G A67G U131C U139C	1.42
A27G A52G A55G A91G A96G U108C U122C	0.01
U26C U124A U130C	0.94
A27G A129G U131C A135U	0.19
U26A U57C A66U A134G	1.02
A24G C105A U122C	0.02

Variant	self-cleavage
A24G G44A A64G A140C	0.8
A27G C35A A69G A95G	1.27
A24G G83U A90G A94G A96G U132C	0.64
A24G U57C A95G U97C U131A	0.57
U26C U43A A91G A126G	1.34
A24U A30U A59G U97G U122C	0.83
A27G A51U U72C	0.12
A24G U37C U130C	1.21
A24G A68G A78U U100C U127A	1.7
A24G C32U C46A A66G A68G U100C	1.04
A24G C46U A90U	1.47
A27U A59U U139A	1.43
U26C A60G A134G	0.83
C25A U49C A52G A89U U139C	1.34
A24G C34U A52U U57A A92G U103C	0.23
A24G A78U A129G	0.08
A27G A94G A129C	0.79
A24U A78C U87A	0.15
A27G U49C U133C A134G	0.47
U26C U39C A78G U130C	0.15
G28A C34A A60G A110C U133C	0.26
A27U U102C U120A U122C U127C	2.28
U26C A111U A126U	0.08
C25U U49C A54G	0.79

Variant	self-cleavage
A24G U38C A78G U132C	0.34
A24G U38C A59G	0.91
A24G A92G A95G U108A	0.04
A24G G41C A82U U87A A111G	0.07
C25U U39C A51G A89G A98G	0.63
U26C A47U U130A A134U	0.66
G28A U70C U72A C112G	0.01
A24U A51U U70C G93A	0.55
A24G U37C A94G U108C	0.03
A24U A63G U70C	1.76
A24U C32U U57C U87C A117G	0.28
A27C U72C G136A	0.07
G29A A51U A69G A110C	0.13
A24U A96G A135U	1.41
U26C U38C U120C	0.42
U26A A66G A67U U72C A86G	0.31
A27U U43C A54G A82C U108C U122C	0.01
U26C A52U U122A	0.6
A24G U57G A59G A117G U130C	0.91
A24G A82G U103A	0.36
A24G U43C C85U U102A U103C G106C U131C	0
A27G U127C A129U	0.31
A27G A52G A78G	0.19
A24G U38C A54C A118G	1.73

Variant	self-cleavage
A27G A59G A64G A86U A94G	1.05
A27G G74C A96U U108C C109A	0.01
A24G U87C A129G U130C	0.36
U26A A91U A126G	1.67
A27G A47G A91U	1.08
A24G A91G C105U A111U	0.01
A24G U87C U103C	0.83
U26C U39C A47G A90G A91G A95G U120C	0.49
A24G U37C U57A	0.74
A24U A54G A59G U130C	1.91
A24G C32U U43G A52G	0.57
U26A C113A U120C	0.01
A24G G93A U127C G137A	1.02
G28U A52G A54G A64G	1.59
A27G U39C U122C	1.12
A24G C34A A56C A59G U72C	0.31
A24U U37C A91G A140G	0.98
A27G A52U C85U	0.93
U26A U87C A95U A140U	1.65
U26A U38C U49C U72A	0.13
G28U A82U U100C A114G U122C	0.06
G28A A60G A95G	2.22
A24G U72G A96G	0.42
